From US20200199241A1 (Chugai, published 2020)

biological target: T1, human FcRn (soluble human FcRn complexed with β2-microglobulin) (human, UniProt P61769 fragment, limits assumed); test: SPR, pH 7.0;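 further: antibodies captured on a Protein L sensor chip with human FcRn injected as analyte, KD calculated from fitted association and dissociation rate constants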
T1 construct: also called hFcRn

Row | Kd [nM] | Binder
1 | 1700 | IgG1-F43 (antibody, EU numbering; copies: 2 + 2) heavy: QVQLQESGPGLVKPSETLSLTCAVSGHSISHDHAWSWVRQPPGEGLEWIGFISYSGITNYNPSLQGRVTISRDNSKNTLYLQMNSLRAEDTAVYYCARSLARTTAMDYWGEGTLVTVSS[here human IgG1 constant region with M252Y N434A (EU numbers) without letters] light: DIQMTQSPSSLSASVGDRVTITCRASQDISSYLNWYQQKPGKAPKLLIYYTSRLHSGVPSRFSGSGSGTDFTFTISSLQPEDIATYYCQQGNTLPYTFGQGTKVEIKRTVAAPSVFIFPPSDEQLKSGTASVVCLLNNFYPREAKVQWKVDNALQSGNSQESVTEQDSKDSTYSLSSTLTLSKADYEKHKVYACEVTHQGLSSPVTKSFNRGEC
2 | 1100 | IgG1-F44 (antibody, EU numbering; copies: 2 + 2) heavy: QVQLQESGPGLVKPSETLSLTCAVSGHSISHDHAWSWVRQPPGEGLEWIGFISYSGITNYNPSLQGRVTISRDNSKNTLYLQMNSLRAEDTAVYYCARSLARTTAMDYWGEGTLVTVSS[here human IgG1 constant region with M252W N434A (EU numbers) without letters] light: DIQMTQSPSSLSASVGDRVTITCRASQDISSYLNWYQQKPGKAPKLLIYYTSRLHSGVPSRFSGSGSGTDFTFTISSLQPEDIATYYCQQGNTLPYTFGQGTKVEIKRTVAAPSVFIFPPSDEQLKSGTASVVCLLNNFYPREAKVQWKVDNALQSGNSQESVTEQDSKDSTYSLSSTLTLSKADYEKHKVYACEVTHQGLSSPVTKSFNRGEC
3 | 1000 | IgG1-F53 (antibody, EU numbering; copies: 2 + 2) heavy: QVQLQESGPGLVKPSETLSLTCAVSGHSISHDHAWSWVRQPPGEGLEWIGFISYSGITNYNPSLQGRVTISRDNSKNTLYLQMNSLRAEDTAVYYCARSLARTTAMDYWGEGTLVTVSS[here human IgG1 constant region with I332V N434W (EU numbers) without letters] light: DIQMTQSPSSLSASVGDRVTITCRASQDISSYLNWYQQKPGKAPKLLIYYTSRLHSGVPSRFSGSGSGTDFTFTISSLQPEDIATYYCQQGNTLPYTFGQGTKVEIKRTVAAPSVFIFPPSDEQLKSGTASVVCLLNNFYPREAKVQWKVDNALQSGNSQESVTEQDSKDSTYSLSSTLTLSKADYEKHKVYACEVTHQGLSSPVTKSFNRGEC
4 | 84 | IgG1-F54 (antibody, EU numbering; copies: 2 + 2) heavy: QVQLQESGPGLVKPSETLSLTCAVSGHSISHDHAWSWVRQPPGEGLEWIGFISYSGITNYNPSLQGRVTISRDNSKNTLYLQMNSLRAEDTAVYYCARSLARTTAMDYWGEGTLVTVSS[here human IgG1 constant region with V308P N434W (EU numbers) without letters] light: DIQMTQSPSSLSASVGDRVTITCRASQDISSYLNWYQQKPGKAPKLLIYYTSRLHSGVPSRFSGSGSGTDFTFTISSLQPEDIATYYCQQGNTLPYTFGQGTKVEIKRTVAAPSVFIFPPSDEQLKSGTASVVCLLNNFYPREAKVQWKVDNALQSGNSQESVTEQDSKDSTYSLSSTLTLSKADYEKHKVYACEVTHQGLSSPVTKSFNRGEC
5 | 11000 | IgG1-F60 (antibody, EU numbering; copies: 2 + 2) heavy: QVQLQESGPGLVKPSETLSLTCAVSGHSISHDHAWSWVRQPPGEGLEWIGFISYSGITNYNPSLQGRVTISRDNSKNTLYLQMNSLRAEDTAVYYCARSLARTTAMDYWGEGTLVTVSS[here human IgG1 constant region with G385H (EU numbers) without letters] light: DIQMTQSPSSLSASVGDRVTITCRASQDISSYLNWYQQKPGKAPKLLIYYTSRLHSGVPSRFSGSGSGTDFTFTISSLQPEDIATYYCQQGNTLPYTFGQGTKVEIKRTVAAPSVFIFPPSDEQLKSGTASVVCLLNNFYPREAKVQWKVDNALQSGNSQESVTEQDSKDSTYSLSSTLTLSKADYEKHKVYACEVTHQGLSSPVTKSFNRGEC
6 | 970 | IgG1-F61 (antibody, EU numbering; copies: 2 + 2) heavy: QVQLQESGPGLVKPSETLSLTCAVSGHSISHDHAWSWVRQPPGEGLEWIGFISYSGITNYNPSLQGRVTISRDNSKNTLYLQMNSLRAEDTAVYYCARSLARTTAMDYWGEGTLVTVSS[here human IgG1 constant region with G385H N434W (EU numbers) without letters] light: DIQMTQSPSSLSASVGDRVTITCRASQDISSYLNWYQQKPGKAPKLLIYYTSRLHSGVPSRFSGSGSGTDFTFTISSLQPEDIATYYCQQGNTLPYTFGQGTKVEIKRTVAAPSVFIFPPSDEQLKSGTASVVCLLNNFYPREAKVQWKVDNALQSGNSQESVTEQDSKDSTYSLSSTLTLSKADYEKHKVYACEVTHQGLSSPVTKSFNRGEC
7 | 1900 | IgG1-F62 (antibody, EU numbering; copies: 2 + 2) heavy: QVQLQESGPGLVKPSETLSLTCAVSGHSISHDHAWSWVRQPPGEGLEWIGFISYSGITNYNPSLQGRVTISRDNSKNTLYLQMNSLRAEDTAVYYCARSLARTTAMDYWGEGTLVTVSS[here human IgG1 constant region with G385H N434Y (EU numbers) without letters] light: DIQMTQSPSSLSASVGDRVTITCRASQDISSYLNWYQQKPGKAPKLLIYYTSRLHSGVPSRFSGSGSGTDFTFTISSLQPEDIATYYCQQGNTLPYTFGQGTKVEIKRTVAAPSVFIFPPSDEQLKSGTASVVCLLNNFYPREAKVQWKVDNALQSGNSQESVTEQDSKDSTYSLSSTLTLSKADYEKHKVYACEVTHQGLSSPVTKSFNRGEC
8 | 930 | IgG1-F68 (antibody, EU numbering; copies: 2 + 2) heavy: QVQLQESGPGLVKPSETLSLTCAVSGHSISHDHAWSWVRQPPGEGLEWIGFISYSGITNYNPSLQGRVTISRDNSKNTLYLQMNSLRAEDTAVYYCARSLARTTAMDYWGEGTLVTVSS[here human IgG1 constant region with M252Y N434H (EU numbers) without letters] light: DIQMTQSPSSLSASVGDRVTITCRASQDISSYLNWYQQKPGKAPKLLIYYTSRLHSGVPSRFSGSGSGTDFTFTISSLQPEDIATYYCQQGNTLPYTFGQGTKVEIKRTVAAPSVFIFPPSDEQLKSGTASVVCLLNNFYPREAKVQWKVDNALQSGNSQESVTEQDSKDSTYSLSSTLTLSKADYEKHKVYACEVTHQGLSSPVTKSFNRGEC
9 | 510 | IgG1-F69 (antibody, EU numbering; copies: 2 + 2) heavy: QVQLQESGPGLVKPSETLSLTCAVSGHSISHDHAWSWVRQPPGEGLEWIGFISYSGITNYNPSLQGRVTISRDNSKNTLYLQMNSLRAEDTAVYYCARSLARTTAMDYWGEGTLVTVSS[here human IgG1 constant region with M428L N434W (EU numbers) without letters] light: DIQMTQSPSSLSASVGDRVTITCRASQDISSYLNWYQQKPGKAPKLLIYYTSRLHSGVPSRFSGSGSGTDFTFTISSLQPEDIATYYCQQGNTLPYTFGQGTKVEIKRTVAAPSVFIFPPSDEQLKSGTASVVCLLNNFYPREAKVQWKVDNALQSGNSQESVTEQDSKDSTYSLSSTLTLSKADYEKHKVYACEVTHQGLSSPVTKSFNRGEC
10 | 1500 | IgG1-F70 (antibody, EU numbering; copies: 2 + 2) heavy: QVQLQESGPGLVKPSETLSLTCAVSGHSISHDHAWSWVRQPPGEGLEWIGFISYSGITNYNPSLQGRVTISRDNSKNTLYLQMNSLRAEDTAVYYCARSLARTTAMDYWGEGTLVTVSS[here human IgG1 constant region with M428L N434Y (EU numbers) without letters] light: DIQMTQSPSSLSASVGDRVTITCRASQDISSYLNWYQQKPGKAPKLLIYYTSRLHSGVPSRFSGSGSGTDFTFTISSLQPEDIATYYCQQGNTLPYTFGQGTKVEIKRTVAAPSVFIFPPSDEQLKSGTASVVCLLNNFYPREAKVQWKVDNALQSGNSQESVTEQDSKDSTYSLSSTLTLSKADYEKHKVYACEVTHQGLSSPVTKSFNRGEC
